Assay results taken from PubChem BioAssay AID1508623 (National Center for Advancing Translational Sciences (NCATS), 2021).
About 450 (0.94%) of roughly 48,000 compounds were called active. About 19% were inconclusive and are not listed. Calls follow the shape of the dose curve; as a rule, active = well fitted inhibition curve with a large enough effect; inconclusive = small, poorly fitted or top-dose-only effect; inactive = no such curve, though single readings can be large or run the other way. The list shows a part of the results.

Test: Primary qHTS for Identification of Small Molecule Inhibitors of Huntingtin Promoter Activity; also: nearly all actives have a fitted effect of over 50% in size
Conditions: HEK293 HTT promoter firefly luciferase reporter (activity 0% = vehicle and -100% = no light), 24 h; series mostly up to 57.5 µM; activity change, negative = inhibition: at the top concentration
In short: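 Luminescence was read after Dual-Glo reagent and a 10 min room-temperature incubation. Values were normalized to vehicle (0% activity) and zero RLU (-100% activity). Reporter HEK293 cells had been exposed to compounds (up to 57.5 uM final) for 24 h.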

Activity change, negative = inhibition, inactive:
Fc1ccccc1N1CCN(Cc2nnc(-c3ccc4c(c3)OCO4)o2)CC1 -8.94%, Cc1ccccc1OCC(=O)Nc1ccc2oc(-c3ccc(F)cc3)nc2c1 9.4%, C[N+](C)(C)CCCCCCCCCC[N+](C)(C)C 1.69%, COc1ccc(C)cc1NC(=O)COc1cc(=O)n(C)c2ccccc12 -6.87%, CCc1ccc(NC(=O)CN(C)S(=O)(=O)c2ccc3c(c2)c(=O)n(C)c(=O)n3C)cc1 -12%, CCOC(=O)c1cc2c(=O)n3ccccc3nc2n(Cc2ccco2)c1=NC(=O)c1ccc(Br)cc1 -18.3%, Cc1ccc(NC(=O)c2nnn(Cc3ccccc3)c2N)cc1C 39.8%, CCN1CCN(CC(=O)Nc2ccc(-c3cccc4c(=O)cc(N5CCOCC5)oc34)c3sc4ccccc4c23)CC1 -21.2%, Cc1ccccc1-c1nc(SCC(=O)NCc2ccc(F)cc2)c2c(=O)n(C)c(=O)n(C)c2n1 9.66%, COc1ccc(-c2nc(-c3cc4cc(Br)ccc4oc3=O)cs2)cc1 -1.84%, COc1ccccc1N1CCN(c2nc3ccccc3n3cnnc23)CC1 5.67%, O=C(CCn1nc(-c2ccccc2)c2ccccc2c1=O)Nc1ccccc1 -24.9%, Cc1cccc(C)c1NC(=O)Nc1csc2c1CCCC2 -17.5%, Cc1ccc2nc(N(CCCN(C)C)C(=O)c3ccco3)sc2c1 18.8%, Cc1ccc(-n2nc(CO)c(C(=O)NCc3ccccn3)n2)cc1 -7.66%, CC(=O)Nc1ccc(NC(=O)c2cc(=O)c3ccccc3o2)cc1 1.63%, COc1ccc(OCc2ccc(-c3nc(C#N)c(N4CCN(c5ccccc5)CC4)o3)o2)cc1 -7.56%, CCOC(=O)c1cc(-c2ccccc2)n(CCC(=O)NCc2ccccc2Cl)c1C -24%, COC(=O)c1sc2cccc(F)c2c1S(=O)(=O)N1CCN(c2cccc(OC)c2)CC1 -32.6%, COc1ccc(Nc2nc3ccccc3nc2NS(=O)(=O)c2ccc(C)cc2)c(OC)c1 -0.705%, O=C(COc1ccccc1F)OCc1cc(=O)n2nc(C3CCCCC3)sc2n1 -5.04%, COc1cccc2cc(S(=O)(=O)c3ccc(F)c(C)c3)c(=O)oc12 -11.5%, O=C1Nc2ccccc2Oc2cc(Oc3cccc(Cl)c3)ccc21 -12%, Cc1nc2nc(SCC(=O)N(C)Cc3ccccc3)nn2c(C)c1Cc1ccccc1Cl -17.7%, Fc1ccc(N2CCN(c3nc4ccccc4c4nc(-c5cccnc5)nn34)CC2)cc1 2.77%, Cc1nnc(N2CCCC(C(=O)NCc3ccccc3)C2)c2nn(-c3ccccc3)c(C)c12 (stereo not drawn) -9.88%, CCCCN(C)CCNC(=O)C1CCCN(S(=O)(=O)c2cccc3nsnc23)C1 (stereo not drawn) -15.3%, Cc1c(Cl)cccc1-c1ccc(CNCCCSc2nnnn2C)o1 -21%, CCc1ccc(S(=O)(=O)c2cn(C)c3cc(N4CCOCC4)c(F)cc3c2=O)cc1 -18.6%, Cc1cn2c(=O)cc(COc3cccc(NC(=O)c4ccc(C(C)(C)C)cc4)c3)nc2s1 -17%, CCOC(=O)C1CCN(CC(=O)Nc2cc(C)c3c(=O)oc4ccccc4c3n2)CC1 -7.19%, N#CC(=C(N)Sc1ccc(N)cc1)c1ccccc1C(F)(F)F -3.8%, O=C(Nc1ccc(OCc2cc(=O)n3c4c(sc3n2)CCCC4)cc1)c1cccc(F)c1 -14.6%, Cc1ccc(NC(=O)CN(C)S(=O)(=O)c2ccc3c(c2)n(C)c(=O)c(=O)n3C)cc1F -7.76%, Cc1ccc(C)c(Nc2nnc(-c3ccc(C)c(S(=O)(=O)N4CCN(C)CC4)c3)c3ccccc23)c1 -13.7%, CCc1ccc(NC(=O)C(=O)NCCc2csc(-c3cccc(F)c3)n2)cc1 -9.91%, CCOc1ccc(NC(=O)CSc2oc(-c3cccs3)nc2S(=O)(=O)c2ccc(C)cc2)cc1 -6.15%, Cc1ccc(C2=CC(c3ccccc3C)n3c(nc4ccccc43)N2)cc1 (stereo not drawn) -1.56%, CCCc1c2oc(C(=O)O)cc(=O)c2cc2c(=O)cc(C(=O)O)n(CC)c12 7.9%, O=C(COc1ccc(Cl)cc1)NCC(c1ccco1)S(=O)(=O)c1ccccc1 (stereo not drawn) -20.3%, COc1ccccc1NC(=O)c1sc2nc3c(c(C(F)(F)F)c2c1N)CN(C(C)=O)CC3 -24.6%, Cc1nn(-c2ccc(N3CCOCC3)nn2)c(C)c1CCC(=O)NCc1ccccc1 -12.4%, Cc1cc(C)c(NC(=O)CSc2n[nH]c(-c3ccccc3Cl)n2)c(C)c1 -20.6%, O=C(O)c1ccccn1 6.36%, CN(C)CCNC(=O)CN1N=C(c2ccccc2)CCC1=O 7.51%, COc1ccc(NC(=O)c2cnc(Nc3ccc(C)c(Cl)c3)c3ccccc23)c(OC)c1 -3.31%, CC(=O)Oc1ccc(C(=C2CCCCC2)c2ccc(OC(C)=O)cc2)cc1 -6.48%, CCCC(=O)N1CCc2cc(OC)c(OC)cc2C1COc1ccc2c(C)cc(=O)oc2c1 (stereo not drawn) -4.12%, COc1ccc2c(c1)CC(C(=O)NCCN1CCN(c3ccccc3F)CC1)CO2 (stereo not drawn) -17.2%, COc1ccc(NC(=O)Cn2c(=O)cc(C)c3c(C)nn(C)c32)cc1 -26.7%, CCOc1ccc(NC(=O)Cn2cc(C(=O)c3ccc(CC)cc3)c(=O)c3cc4c(cc32)OCO4)cc1 -7.33%, Cc1ccc(Cl)cc1N1CCN(C(=O)c2cnn(C(C)(C)C)c2C2CCN(C(=O)OC(C)(C)C)CC2)CC1 -15.3%, CCC(Sc1ncc(S(=O)(=O)c2ccc(C)cc2)c(=O)[nH]1)C(=O)Nc1cc(C)ccc1C (stereo not drawn) -8.42%, CCc1ccc(NC(=O)CN2CCN(C3CCCCC3)C(=O)C2=O)cc1 8.63%, O=C(Cn1cc(SCc2ccc(Br)cc2)c2ccccc21)N1CCCCC1 -6.25%, Cc1ccc(/C=C(\C#N)C(=O)Nc2ccc(Br)cc2)o1 88.3%, Cn1nnnc1SCCCNCc1cccc(OCc2ccccc2F)c1 -3.19%, O=C(Nc1c(C(=O)c2ccc(Cl)cc2)oc2ccccc12)c1cc(=O)c2ccccc2o1 -10.8%, CCc1nc2ccc(C(=O)NCc3ccc(N(C)C)cc3)cc2nc1CC -21.4%, Cc1ccc2oc(=O)c(S(=O)(=O)c3ccc(F)cc3)cc2c1 -10.9%, COc1ccc(NC(=O)c2ccco2)cc1NC(=O)c1ccc(C)c(C)c1 -17%, CCN(C(=O)CSc1nc2ccccc2n1Cc1ccc(C(=O)OC)cc1)c1ccccc1 -21.8%, COc1ccc(CCN2C(=O)NC(NC(=O)c3ccccc3OC)(C(F)(F)F)C2=O)cc1OC (stereo not drawn) -28.9%
